PMC4336329 (PLoS ONE, 2015)
Hit rate of the full screen: of about 310,000 compounds, about 14,000 (4.5%) showed an effect of 50% or more. The effect is printed as a negative number. This is one part of the list.

target: human ether-à-go-go-related gene (hERG) potassium channel (human, UniProt Q12809); test: primary screen, population patch clamp on CHO cells stably expressing hERG
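Further: peak tail current of the secondary pulse compared with the same well before compound.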

Sequence of human ether-à-go-go-related gene (hERG) potassium channel (Q12809 whole entry, looked up): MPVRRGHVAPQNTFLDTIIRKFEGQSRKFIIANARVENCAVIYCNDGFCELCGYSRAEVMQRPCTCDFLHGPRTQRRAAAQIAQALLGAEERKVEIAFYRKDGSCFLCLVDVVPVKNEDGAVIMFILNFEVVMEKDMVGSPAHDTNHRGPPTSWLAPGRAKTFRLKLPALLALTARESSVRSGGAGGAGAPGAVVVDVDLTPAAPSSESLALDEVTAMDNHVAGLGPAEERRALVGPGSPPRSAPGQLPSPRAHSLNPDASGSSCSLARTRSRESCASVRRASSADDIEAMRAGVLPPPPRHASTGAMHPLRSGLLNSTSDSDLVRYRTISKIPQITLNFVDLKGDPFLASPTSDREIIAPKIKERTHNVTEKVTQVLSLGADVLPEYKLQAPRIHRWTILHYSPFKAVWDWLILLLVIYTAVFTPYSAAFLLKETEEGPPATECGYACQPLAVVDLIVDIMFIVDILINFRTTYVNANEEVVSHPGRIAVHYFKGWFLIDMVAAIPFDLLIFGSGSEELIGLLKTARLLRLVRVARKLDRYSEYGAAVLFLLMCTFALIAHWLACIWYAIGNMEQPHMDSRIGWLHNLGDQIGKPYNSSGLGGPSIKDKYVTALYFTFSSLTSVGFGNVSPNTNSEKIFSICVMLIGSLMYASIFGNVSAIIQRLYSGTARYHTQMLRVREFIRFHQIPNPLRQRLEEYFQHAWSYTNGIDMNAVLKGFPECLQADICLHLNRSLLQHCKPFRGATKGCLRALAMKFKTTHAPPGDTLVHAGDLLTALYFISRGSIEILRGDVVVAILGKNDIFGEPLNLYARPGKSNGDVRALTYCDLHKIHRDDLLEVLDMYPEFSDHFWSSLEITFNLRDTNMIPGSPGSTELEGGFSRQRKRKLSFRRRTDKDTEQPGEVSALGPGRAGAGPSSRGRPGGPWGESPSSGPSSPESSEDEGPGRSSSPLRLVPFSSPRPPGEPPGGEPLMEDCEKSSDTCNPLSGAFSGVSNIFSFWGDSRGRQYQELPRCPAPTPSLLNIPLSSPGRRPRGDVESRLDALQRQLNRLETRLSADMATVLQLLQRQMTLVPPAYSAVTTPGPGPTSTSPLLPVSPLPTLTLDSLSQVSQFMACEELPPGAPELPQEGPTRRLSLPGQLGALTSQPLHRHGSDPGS

First: COC(=O)C(CCSC)NC(=O)c1cc2c(n(-c3ccccc3)c1=O)CCCC2=O (centres unmarked)
Second: CC(NC(=O)c1ccccc1Br)c1ccc2c(c1)CCCC2 (centres unmarked)
The “hERG current change (%, negative = inhibition) at 10uM” value of the first is higher: -1.42% for the first, -24.1% for the second.

Going from `Cc1ccc(NC(=O)c2ccc(S(=O)(=O)NCC3CCCO3)cc2)cc1` (centres unmarked) to `CCC(C)NC(=O)CNS(=O)(=O)c1ccc(C)cc1` (centres unmarked), the “hERG current change (%, negative = inhibition) at 10uM” value rises from -1.42% to 5.31%.

Going from `O=C(COc1ncnc2cc([N+](=O)[O-])ccc12)NC(=O)NC1CCCCC1` to `CC1CCCCC1NC(=O)CC1Oc2ccccc2NC1=O` (centres unmarked), the “hERG current change (%, negative = inhibition) at 10uM” value rises from -56.5% to 0.244%.

First: Cc1ccc(N/C(N)=N/c2nc(C)cc(C)n2)cc1
Second: Cc1ccc(NC(=O)N2CCCC2C(=O)Nc2ccc(-n3cnnn3)c(C)c2)cc1 (centres unmarked)
The “hERG current change (%, negative = inhibition) at 10uM” value of the first is lower: -68.7% for the first, -18.7% for the second.

First: O=C(/C=C\Nc1ccc2c(c1)OCO2)c1ccc2c(c1)OCO2
Second: C=CCc1cccc(CNc2cnc3ccccc3c2)c1O
The “hERG current change (%, negative = inhibition) at 10uM” value of the first is higher: 27.3% for the first, -4.21% for the second.

First: Nc1[nH]c(=O)nc(Nc2ccccc2)c1N=O
Second: O=c1ccc2ccccc2o1
The “hERG current change (%, negative = inhibition) at 10uM” value of the first is lower: -4.44% for the first, 16.1% for the second.

Compared with `CCCCN1C(=O)C(O)=C(C(C)=O)C1c1ccc(OC)cc1OC` (centres unmarked), `CCCNS(=O)(=O)c1cccc(C(=O)OCc2cc(=O)oc3cc(OC)ccc23)c1` is lower in “hERG current change (%, negative = inhibition) at 10uM” value: -11.1% for the first, -11.2% for the second.

Compared with `COc1ccc(CNC(=O)c2cc3c(=O)n4cccc(C)c4nc3n(CC3CCCO3)c2=N)cc1` (centres unmarked), `COc1ccc(N2CCN(C(=O)CNC(=O)c3ccc4ccccc4c3)CC2)cc1` is higher in “hERG current change (%, negative = inhibition) at 10uM” value: -77.2% for the first, 4.98% for the second.

Going from `CCNS(=O)(=O)c1cc(Br)ccc1OC` to `COc1ccc(NC(=O)CNS(=O)(=O)c2ccc(Cl)cc2)cc1OC`, the “hERG current change (%, negative = inhibition) at 10uM” value rises from -8.54% to -7.17%.

Compared with `COc1ccc(NC(=O)C2CC(=O)OC2c2ccccc2)cc1` (centres unmarked), `COc1ccc(C2CC(c3cccs3)=NN2C(=O)CSc2nc3ccccc3s2)cc1` (centres unmarked) is lower in “hERG current change (%, negative = inhibition) at 10uM” value: 6.71% for the first, -6.91% for the second.

Compared with `CCOc1cc(/C=N/NC(=O)C(=O)N/N=C/c2ccc(O)c(OCC)c2)ccc1O`, `C=CCOC(=O)/C(=C\c1ccc(OC)cc1)NC(=O)c1ccco1` is lower in “hERG current change (%, negative = inhibition) at 10uM” value: 23.2% for the first, -7.71% for the second.

First: Cc1[nH]c2ccccc2c1/C=C/c1nc2ccccc2c(=O)[nH]1
Second: CC(=O)NCc1nc2ccccc2n1Cc1ccccc1C
The “hERG current change (%, negative = inhibition) at 10uM” value of the first is higher: 6.46% for the first, -0.286% for the second.

Going from `Cc1nn(C)c(=O)n1N(C)c1ncc(C(F)(F)F)cc1Cl` to `Cn1c(SCc2cccc(Br)c2)nc2c1c(=O)[nH]c(=O)n2C`, the “hERG current change (%, negative = inhibition) at 10uM” value falls from 23.8% to 15.5%.

First: O=C1NC(=O)C(CCc2ccncc2)(Cc2ccc(OCc3ccccc3)cc2)C(=O)N1
Second: COCCn1c(SCc2ccc(OC)c(F)c2)nc2ccccc2c1=O
The “hERG current change (%, negative = inhibition) at 10uM” value of the first is higher: 11.8% for the first, -2.82% for the second.

First: NC(=O)c1cc(-c2cccnc2)nc2ccc(Br)cc12
Second: Cc1c(C(C)NC(=O)c2cc(COc3cccc4cnccc34)on2)cnn1C (centres unmarked)
The “hERG current change (%, negative = inhibition) at 10uM” value of the first is higher: 10.2% for the first, -55.6% for the second.

Compared with `O=C(NCc1cccnc1)C(=O)Nc1nc(C23CC4CC(CC(C4)C2)C3)cs1`, `CCCOc1cccc(C(=O)NCCCNC(=O)c2cccnc2)c1` is lower in “hERG current change (%, negative = inhibition) at 10uM” value: 12.1% for the first, -20.2% for the second.

First: COc1cccc(CSc2nc(N)cc(N)n2)c1
Second: O=C(CSc1nnc(COc2cccc3ccccc23)o1)N1CCN(C(=O)c2ccco2)CC1
The “hERG current change (%, negative = inhibition) at 10uM” value of the first is higher: 14% for the first, -65.1% for the second.

First: CC(C)C(=O)N1CCC(n2nccc2NC(=O)CCOc2ccccc2)CC1
Second: O=C(NCC1CCCN(Cc2ccc3nonc3c2)C1)c1ccc(F)cc1 (centres unmarked)
The “hERG current change (%, negative = inhibition) at 10uM” value of the first is higher: 0.0951% for the first, -60.8% for the second.

Compared with `CCNC(=S)NNC(=O)c1ccncc1`, `CN(C)CCNC(=S)Nc1ccccc1C(C)(C)C` is higher in “hERG current change (%, negative = inhibition) at 10uM” value: 3.18% for the first, 31.4% for the second.

Going from `CCc1noc(C)c1C(=O)Nc1nc2ccc(F)cc2s1` to `CC(=O)Nc1c2c(nn1-c1ccc(C)cc1)CSC2`, the “hERG current change (%, negative = inhibition) at 10uM” value rises from -7.36% to 10.9%.

Compared with `COC(=O)/C(=C\C(=O)c1ccccc1)Nc1cccc(C(F)(F)F)c1`, `CC(C)Nc1nc(NC(C)C)nc(Oc2ccc(/C=N/O)cc2)n1` is lower in “hERG current change (%, negative = inhibition) at 10uM” value: -2.94% for the first, -6.53% for the second.

First: CCOCCCNC(=O)C(=O)NCCCOCC
Second: Cc1cc(C)c(C#N)c(SCC(=O)N(C)C2CCCCC2)n1
The “hERG current change (%, negative = inhibition) at 10uM” value of the first is higher: 0.952% for the first, -19.2% for the second.
